B1: CPEB3 Ribozyme (parent)
chain: UAACAGGGGGCCACAGCAGAAGCGUUCACGUCGCAGCCCCUGUCAGAUUCUGGUGAAUCUGCGAAUUCUGCUGUAUAUCUC

Read counts are not given, so values of variants with three or more changes are uncertain.

This data set covers variants of B1. As to the kind of experiment: self-cleavage, relative activity (ratio to wild type); higher = more cleavage; in vitro, sequencing. In short, it runs like this:
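Barcoded CPEB3 ribozyme mutants, produced by rounds of error-prone PCR, self-cleaved while being transcribed with T7 RNA polymerase for 5 hours at 37°C and during a subsequent 15 min DNase I step before EDTA was added. Sequencing of template-switched cDNA on Illumina gave cleaved and total reads, and DNA sequencing assigned barcodes to variants. Each variant's relative activity is its cleaved/total read fraction divided by the unmutated ribozyme's fraction, averaged across three batches. A variant needed a minimum of 5 reads.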
In the case of UAACAGGGGGCCACCGCAGAAGCGUUCACGUCGCAGCCCCUGUCAGAUUCUGGUGCAUCUGCGAAUUCUGCUGUAUAUCCC, the self-cleavage was found to be 0.41. Under UAACAGGGGGCCACCGCAGAAGCGUUCACGUCGCUGCCCCUGUCAGAUUCUGGUGAAUCCGCGAAUUCUGCUGCAUAUCUC stands 0.07; under UAACAGGGGGCCACCGCAGAAGCGUUCACGUCGCAGCCCCUGUCAGAUUCUGGUGAAUCUGCGAAUUCUGCAGUAUAUCCC, 1.09. The same measure for UAACAGGGGGCCAUAGCAGAAGCGUUCACGUCGCAGCCCCUGUCAGACUCUGGUGAAUCUGCGAAUGCUGCUGUAUAUCUC: 0.15.

Regarding UAACAGGGGGCCACCGCAGAAUCGUUCACGACGCAGCCCCUGUCAGAUUCUGGCGAAUCUGCGAAUUCUGCUGUAUGUCUC, the self-cleavage turned out to be 0.18. Turning to UAACAGGGGGCCACCGCAGUAGCGUUCACGUCGCAGUCCCAGUCAGAUUCUGGUGAAUCUGGGGAUUCUGCUGGAUAUCUC, the self-cleavage was 0.03. The same measure for UAACAGGGGGCCAUAGCAGAAGCGAUCACGUCGCAGCCCCCGUCAGAUUCUUGUGAAUCUGCGAGUUCUGCCGUAUAUCUC: 0.08. Turning to UAACAGGGGGCCAUAGCAGAAGCGUUCACGUCGCAGCCCGUGUCAGAUUCUGGUGAAUCUGCGAGUUCUGCUGUAUAUCCC, the self-cleavage came out at 0.06. Turning to UAACAGGGGGCCACCGCAGAGGCGUACACGUUGCAGCCCCUGUCAGAUUCUGGUGAAUCUGCGAAUUCUGCUGUAUAUCUC, the self-cleavage is 0.29. Under UAACAGGGGGCCACCGUAGAAGCGUUCACGCCGCAGCCCCCGUCAGAUUCUGGUGGAUCUGCGUAUUCUGCUGUAUAUCAC stands 0.09. The same measure for UAACAGGGGGCCACCGCACAAGCGUUCACGUCGCAGCCCCUGUCAGAUUCUGGUGAAUCUGCGAGUUCAGCAGUAUAUCUC: 0.07; for UAACAGGGGGCCAUAGCAGAAGCGUUCACGUCGCAGCCCCUGUCAGAUUCCGGUGAAUCUGCGAAUCCUGCUGUAUAUCUC: 0.32; for UAACAGGGGGCCAUAGCAGAAGCGUUCACGUCGCAGCCCCUGUCAGAUCCUGGUGAAUCGGCGUAUUCCGCUGUAUAUCUC: 0.11.

On to UAACAGGGGGCCACCGCAGAAGCGUUCACGUCGCAGCACCUGUCAGAUUCUGGUGAAUCUGCGAAUUCAGCUGUAUAUCUC, for which the self-cleavage was determined as 0.23. Under UAACAGGGGGCCACCGCAGAAGCGUUCACGACGCAGCCCCUGUCAGAUUCUGGUGAAUCUGCGAAUUCUGCCGUAUAACCC stands 0.91.

Turning to UAACAGGGGGCCAUAGCAGAAGCGUUCACGUCGCAGCCCCUGUCAGAUCCUGGUGGAUCUGCGAAUUCUGCUGUAUAUCUC, the self-cleavage was found to be 1.25. For UAACAGGGGGCCACCGCAGAAGCGCUCACGUCGCAGCCCCUGUCAGAUUCUGGUGAAUCUGCGAAUUCUGCCGUAUGUCUC, the self-cleavage worked out at 0.1. As to UAACAGGGGGCCACCGCGGAAGCGUACACGUCGCAGCCCCUGUCAGAUUCUGGUGAGUCUGCGAAUUCUGCUGUAUAUCUC, the self-cleavage stood at 0.45. Under UAACAGGGGGCCAUAGCAGAAGGGUCCACGUCGCAGCCCCUGUCAGUUUCUGGUGAAUCCGCGGAUUCUGCUGUAUAUCAC stands 0.06; under UAACAGGGGGCCACCGCAGAAGCGUACGCGCCGCAGCCCCUGUCAGAUUCUGGUGAAUCUGCGAAUUCUGCUGUAUAUCUC, 0.13.

As for UAACAGGGGGCCAUAGCAGAAGCGUUCACGUCGCAGCCCCUGUCGGAUUCUGGUGAAUCUGCGAAUUCUGCUGUGUAUCCC, the self-cleavage was 1.03. Turning to UAACAGGGGGCCAUAGCAGAAGCGAUCACGUCACAGCCCCUGUCAGACUCCGGUGAAUCUGCGAAUUCUGCUGUACAUCUC, the self-cleavage stood at 0.1. The same measure for UAACAGGGGGCCACCGCAGAAGCGUUCACGUCGCAGCCCCUGCCAGAUUCUGGCGUAUCUGCGAACUCUGCUGUAUAUCUC: 0.14. Take UAACAGGGGGCCACCGCAGAAGCGUUCACGUCGCAGCCCCUGUCAGGUUCUGGUGAAUCGGCGAAUUCUGCUGUAUAUCUC: the self-cleavage came to 0.17. Under UAACAGGGGGCCAUAGCAGAAGCGUUCACGUCGCAGCCCCUGUCAGACCCAGGUGAAUCUGCGAAUUCUGCUGUAUAUCUC stands 0.12. UAACAGGGGGCCAUAGCAGAAGCGUUCACGUCGCAGCCCCUGUCAGAUUCUGGUGAAUCCGCGAAUUCAGCUGUAUAUCUC: the self-cleavage came to 0.09. Under UAACAGGGGGCCAUAGCAGAAGCGUUCACGUCGCAGCCCCUGUCAGAUUCAGGCGAAUCUGCGAAUUCUGCUGUAUAUCUC stands 1.24; under UAACAGGGGGCCACCGCAGAAGCGUUCACGUCGCAGCCCCUGUCAGAUUCUGGUGAAUCAGCGAAUUCUGCUGUAUUUCUC, 0.2. Under UAACAGGGGGCCACCGCAGAAGCGUUCACGCCGCAGCCCCUGACAGAUUCUGGAGAAUCUGCGAAUUCUGCUGUAUAACUC stands 0.75; under UAACAGGGGGCCAUAGCAGAAGCUUUCACGUCGCAGCCCCUGCCAUAUUCUGGAGAAUCUGCGAAUUAUGCUGUAUAUCUC, 0.08; under UAACAGGGGGCCACCGCAGAAGUGUUCACGUCGCAGUCCCUGUCAGGUUCUGGUGGAUCUGCGAAUUCGGCUGUAUAUCUC, 0.08. As to UAACAGGGGGCCACCGCAGGAGCGUUCAUGUCGCAGCCCCUGUCAGAUUCUGGUGGAUCUGCGAAUUCUGCUGUAUAUCUC, the self-cleavage was 0.08. For UAACAGGGGGCCAUAGCAGAAGGGUUCACGUCGCAGCCCCUGUCAGAUUCUGGUGAAUCUGCGAGUUCUGCUGAAUAUCUC, the self-cleavage turned out to be 0.08. Regarding UAACAGGGGGCCAUAGCAGAAGCGUUCACGUCGCAGCCCCUGUCUGAUUCCGGUGAAUCUGCGGAUUCUGCUGUAUAUCAC, the self-cleavage amounted to 0.12.

With UAACAGGGGGCCACCGCAGAAGCGUUCACGUCGCAGCCCCUGCCAGAUUCUGGUGAAUCUGCGAAUCCUGCUGUAUAUCUC, the self-cleavage came to 0.15.

For the variant UAACAGGGGGCCAUAGCAGAAGCGUCCACGUCGCAGCCCCUGUCAGAUUCUGGUGAAUCUGCGAAUUCUGCUGUAUAUCGC, the self-cleavage was determined as 1.03. With UAACAGGGGGCCACGGCCGAAGCGCUCACGUCGCAGCCCCUGUCAGAUUCUGGUGAAUCUGCGACUUCUGCUGUAUAUCUC, the self-cleavage worked out at 0.22.

As to UAACAGGGGGCCACCGCAGAAGCGUUCGCGGCGCAGCCUCUGUCAGACUCUGGUGAGUCCGCGAAUUCUGCUGUAUAUCUC, the self-cleavage worked out at 0.

In the case of UAACAGGGGGCCAUAGCAUAGGCGUUCACGUCGCAGCCCCUGCCAGAUUCUGGUGAAUCUGCGAAUGCCGCUGUAUAUCUC, the self-cleavage is 0.2. In the case of UAACAGGGGGCCACCGCAGAAGCGUUCACGUCGCAGCCCCUGUCAGAUCCUGGUGAAUCUGCGAAUUCUGCUUUAUAUCUC, the self-cleavage was determined as 0.28. The same measure for UAACAGGGGGCCACCGCAGAAGCGUCCACGUCGCAGCCCCUGUCAGAUCCUGGUGAAUCUGCAAAUUCUGCUGGAUAACUC: 0.05; for UAACAGGGGGCCACCGCAGAAGCAUACACGUCGCUGCCCCUGUCAGAUUCUGGUGAAUCUGCGAAUUCUGCUGUAUAUCUC: 0.18; for UAACAGGGGGCCACGGCCGAAGCGUUCACGUCGCAGCCCCUGUCAGAUUCUGGUGAAUCUGCGACUUCUGCUGUAUAUCUC: 0.11. In the case of UAACAGGGGGCCACCGCAGAAGCGUUCACGUCGCAGCCCCUGUCAGAUUCUGGUGAAUCUGCGAUUUCUGCUGUAUACCUC, the self-cleavage was found to be 0.27. The same measure for UAACAGGGGGCCAUAGCAGAAGCGUUCACAUCGCAGCCCCUGUCAGAUUCUGGUGAAUCUGCGAAUUCAGCUGUAUGUCUC: 0.2; for UAACAGGGGGCCACCGCAGAGGCGUUCACGUCGCAGCCCCUGUCAGAUUCUGGUGAAUCUGCGAAUUCUCCUGUAUAUCUC: 0.07; for UAACAGGGGGCCAUAGCAGAAGCGUUCACGUCGAUGCCCCCGUCAGAUUCAGGAGAAUCUGCGAAUUCUGCCGUAUAUCUC: 0.12.

As to UAACAGGGGGCCACCGCAGUAGCGUUCACGUCGCAGCCGCUGUCAGGUUCUGGCGAAUCUGCGAAUUCUGCUGUAUAUCUC, the self-cleavage is 0.25. The same measure for UAACAGGGGGCCACCGCAGAGGCGUUCACGUCGCAGCCCAUGUCAGAUUCUGGUGAAUCUGCGAAUUCUGCUGUAUGUCUC: 0.39; for UAACAGGGGGCCACCGCAGAAGCGUUCACGUCGCAGCCCCUGUCAGAUUCCGGUGAAUCUGCGAAUACUGCUGUAUAUCUC: 0.3; for UAACAGGGGGCCAUAGCAGAAGCGUUCACGUCGCAGCCCCUGUCAGAUUCGGGUGAAUCUGCGAAUCCUGCUGUAUAUCUC: 0.14.

For UAACAGGGGGCCACCGCAGAAGCGUUCACGUCGCAGCCCCUGUCAGAUUCUGGUGAAUCUGCGAAUUCUGCUGAACAUCUC, the self-cleavage was 0.81. Consider UAACAGGGGGCCAUAGCAGAAGCGUUCACGUCGCAACCCCUGUCAGAUUCUGUUGAAUCUGCGAAUUCUGCUGUAUAUCUC, for which the self-cleavage amounted to 0.3. Under UAACAGGGGGCCACCGCUGAAGCGUUCACGUCGCAGCCCCUGCCAGAUUCUGGUGAAUCUGCGAAUUCAGCUGUAUAUCUC stands 0.89; under UAACAGGGGGCCACCGCAGAAGCGUUCACGUCGCAGCCCCUGUCAGAUUCAGGUGAAUCUGCGAGUUCUGCUGUAUAUCUC, 0.5. The same measure for UAACAGGGGGCCAUAGCAGAAGCGUUCACGUCGCAGCCCCUGUCAGGUUCUGGUGAAUCUGCGAAUUCUGCUGUAUAUCAC: 1.07; for UAACAGGGGGCCAUAGCAGAAGCGCUCACGUCGCAGCCCCUGUCAGAUUCUGGUGAAUCUGCUAAUUCUGCUGUAUAUCUC: 0.4; for UAACAGGGGGCCACCGCAGGAGCGUUCAAGUCGCAGCCCCUGUCGGAUUCUGGUGAAUCUGCGAAUUCUGCUGUAUAUCUC: 0.25. The same measure for UAACAGGGGGCCACCGCAGAGGCGUACACGUCGCAGCCCCUGUCAGAUUCAGGUGAAUCUGCGAAUUCUGCUGUAUAUCUC: 0.45; for UAACAGGGGGCCACCGCAGGAGCGUUCACGUCGCAGCCCCUGUCAGAUUCUGGUGAAUCUGCGGAUUCUGCUGUAUAUCUC: 0.5. As for UAACAGGGGGCCAUAACAGAAGCGCUCUCGUCGCAGCCCCUGUCAGAUUCUGGUGAAUCUGCGAAUUCUGCUGUGUAUCUC, the self-cleavage stood at 0.23.

Regarding UAACAGGGGGCCAUAGCAGAAGCGUUCACGUCGCAGCCCCUGUCAGAUUCUGGUGAAUCUGCGAAUUCUGCAGUAUGUCUC, the self-cleavage is 1.2. As for UAACAGGGGGCCACCGCAGAAGCGUUCACGUCGCAGCCCCUGUCAGAUUCUGGUGGAUCUGCGGAUUCUGCUGUAUAUCUC, the self-cleavage was found to be 0.72. Take UAACAGGGGGCCAUAGCAGAAGCGCUCACGUCGCAGCCCCAGUCUGAUUCUGGUGAAUCCGCGAAUUCUGCUGUCUAUCUC: the self-cleavage was 0.07. As to UAACAGGGGGCCAUAGCAGAAGCGUUCACGUCGCAGCCCCUGCCAGAUUCUGGUGAACCUGCGAAUUCUGCUGUAUAUCUC, the self-cleavage was determined as 0.16. Under UAACAGGGGGCCAUAGCACAAGCGUUCACGUCGCAGCCCCUGUCAGAUUCUGAUGAAUCUGCGAAUUCUGCUGUAUAACUC stands 0.07; under UAACAGGGGGCCACCGCAGAGGCGUUCACGUCGCAGCCCCUGUCAGAUUCUGGUGAAUCCGCGAAUACUGCUGUACACCUC, 0.08. Regarding UAACAGGGGGCCACCGCAGAGGCGUUCACAUCGCAGCCCCUGUCAGAUACCGGUGAAUCUGCGAAUCCUGCUGUAUAUCUC, the self-cleavage was 0.06.

Values taken from the RNAGym collection of RNA variant scans (doi:10.1093/nar/gkz1192).
